Activity calls are given as the source filed them. The rule behind the calls is not given here. Peptide text beside a SMILES is read from it.

The species entered for this assay is Homo sapiens. Put plainly: Modulation of Frizzled in human Caco2 cells assessed as protection against 0.25 to 1 ng/ml TcdB-induced cell rounding at 50 uM incubated for 24 hrs by phalloidin conjugated AlexaFluor488 dye based fluorescence microscopy relative to control.

On to `CSCC[C@H](NC(=O)[C@@H](NC(=O)[C@H](Cc1cnc[nH]1)NC(=O)[C@H](CO)NC(=O)[C@H](Cc1c[nH]c2ccccc12)NC(=O)[C@H](Cc1ccccc1)NC(=O)[C@H](CCC(=O)O)NC(=O)[C@H](CC(C)C)NC(=O)[C@H](CC(=O)O)NC(=O)[C@H](CC(=O)O)NC(=O)[C@H](CO)NC(=O)[C@@H]1CCCN1C(=O)[C@H](CC(C)C)NC(C)=O)C(C)C)C(=O)N[C@@H](Cc1ccc(O)cc1)C(N)=O` (Ac-LPSDDLEFWSHVMY-NH2), for which the result was inactive.

Source of the values: ChEMBL document CHEMBL4373723 (J Med Chem, 2019).
